Measured values reported in the supplement of paper PMC4466236.
Whole data set: some 33,000 sequences, median “E-score (dimensionless, -0.5 to 0.5)” near -0.058, cut for the highest 2% near 0.35. Some of the results follow.

What follows are sequences tested on MvaT (assay: PBM 8-mer E-score (mean of HK and ME arrays) (E-score (dimensionless, -0.5 to 0.5)); higher = stronger relative binding preference; most listed sequences are background and not binding sites).
Summary of the method: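 Reported values are rank-based E-scores, taken as the mean of two universal arrays and parsed with a custom script. Each 8-mer score falls between -0.5 and 0.5. The arrays, ME and HK, were double-stranded 60-mers with a constant 25-mer primer region and a variable 35-mer region covering all 8-mers. They were probed, by an earlier protocol, with full-length P. aeruginosa MvaT carrying an N-terminal glutathione S-transferase fusion.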
AATGCCGA was tested, and the “PBM 8-mer E-score” value was -0.104. With GTCGTCGA the “PBM 8-mer E-score” value was -0.115. With AGAAGGCA the “PBM 8-mer E-score” value was -0.201. For CCGAGCAC, the “PBM 8-mer E-score” value was -0.121. In the case of GCATTTAA, the “PBM 8-mer E-score” value was 0.326. CCATCGCG was tested, and the “PBM 8-mer E-score” value was -0.214. For GAAGTCCA, the “PBM 8-mer E-score” value was -0.139. For AGTTTCGC, the “PBM 8-mer E-score” value was 0.0462. ACCTTAAC was tested, and the “PBM 8-mer E-score” value was 0.0724. GGTGTATA was tested, and the “PBM 8-mer E-score” value was 0.127. GATGCCAC was tested, and the “PBM 8-mer E-score” value was -0.247. For ATTAAGAG, the “PBM 8-mer E-score” value was 0.297. ACCAGCCC was tested, and the “PBM 8-mer E-score” value was -0.143. With AACCGTCC the “PBM 8-mer E-score” value was -0.105. In the case of AGCGCGGG, the “PBM 8-mer E-score” value was -0.347. For CCGAAGCA, the “PBM 8-mer E-score” value was -0.136. For CAACATTG, the “PBM 8-mer E-score” value was 0.0214. For CACCACAC, the “PBM 8-mer E-score” value was -0.0372. With CGTGACAG the “PBM 8-mer E-score” value was -0.131. With ATCCGACA the “PBM 8-mer E-score” value was -0.132. With GACTTTCC the “PBM 8-mer E-score” value was -0.0101. AGACGATG was tested, and the “PBM 8-mer E-score” value was -0.178. In the case of CATGTAGA, the “PBM 8-mer E-score” value was 0.0372. For GCTGGATA, the “PBM 8-mer E-score” value was -0.0729. ATCTGCAC was tested, and the “PBM 8-mer E-score” value was -0.152. With CCCGCTAA the “PBM 8-mer E-score” value was -0.161. In the case of ACCAGGCC, the “PBM 8-mer E-score” value was -0.273. With TAAATCGA the “PBM 8-mer E-score” value was 0.182. CAGTGGGG was tested, and the “PBM 8-mer E-score” value was -0.207. With GAGGAAAC the “PBM 8-mer E-score” value was -0.144. With CTGCTGTC the “PBM 8-mer E-score” value was -0.222. For ATCGAGTC, the “PBM 8-mer E-score” value was -0.0107. AACAGATA was tested, and the “PBM 8-mer E-score” value was 0.157. With ACCTATAA the “PBM 8-mer E-score” value was 0.208. In the case of GACTTACA, the “PBM 8-mer E-score” value was 0.0985. With CACTAGTA the “PBM 8-mer E-score” value was 0.152. With GATGCCTA the “PBM 8-mer E-score” value was -0.224. In the case of GCGGTGCC, the “PBM 8-mer E-score” value was -0.188. In the case of CGGTTGAC, the “PBM 8-mer E-score” value was -0.092. AGATTCTG was tested, and the “PBM 8-mer E-score” value was -0.0938. GATTGCGA was tested, and the “PBM 8-mer E-score” value was -0.0169. For CATATCAG, the “PBM 8-mer E-score” value was 0.0279. CAGACCCA was tested, and the “PBM 8-mer E-score” value was -0.0878. With CTGCTAGA the “PBM 8-mer E-score” value was -0.212. With CGTAAAGA the “PBM 8-mer E-score” value was 0.0321. In the case of CCCGGCCG, the “PBM 8-mer E-score” value was -0.179. In the case of GCGTCCTA, the “PBM 8-mer E-score” value was -0.11. With AATACTGG the “PBM 8-mer E-score” value was 0.12. With CCCAGCAC the “PBM 8-mer E-score” value was -0.209. For CATACATC, the “PBM 8-mer E-score” value was 0.0581. With GGGTACCC the “PBM 8-mer E-score” value was -0.345. With CAAAGCCA the “PBM 8-mer E-score” value was -0.0918. In the case of AGGGGAGG, the “PBM 8-mer E-score” value was -0.325. With ATCCACAT the “PBM 8-mer E-score” value was 0.0886. AAACAGTG was tested, and the “PBM 8-mer E-score” value was 0.0852. For CGCGGTGC, the “PBM 8-mer E-score” value was -0.206. CTTCCTGA was tested, and the “PBM 8-mer E-score” value was 0.0262. For AGCGTCCA, the “PBM 8-mer E-score” value was -0.149. AATATTTG was tested, and the “PBM 8-mer E-score” value was 0.349. For CAACTTCG, the “PBM 8-mer E-score” value was 0.227. With ACCCGACA the “PBM 8-mer E-score” value was -0.206. With CCTATATA the “PBM 8-mer E-score” value was 0.35. CGATTGAC was tested, and the “PBM 8-mer E-score” value was -0.0965. In the case of ATACGGGA, the “PBM 8-mer E-score” value was -0.0541. AGACTCCG was tested, and the “PBM 8-mer E-score” value was -0.168. For CAAGCTAA, the “PBM 8-mer E-score” value was -0.065. For ACGCCAGA, the “PBM 8-mer E-score” value was -0.195. CATAGCCC was tested, and the “PBM 8-mer E-score” value was -0.211. For ATAAACTG, the “PBM 8-mer E-score” value was 0.175. For TAGAATAA, the “PBM 8-mer E-score” value was 0.306. In the case of CCGGAAGG, the “PBM 8-mer E-score” value was -0.282. With AACTATGC the “PBM 8-mer E-score” value was 0.156. CTTTAACC was tested, and the “PBM 8-mer E-score” value was 0.0678. With ACGTTGAG the “PBM 8-mer E-score” value was -0.16. In the case of AAGCCAAA, the “PBM 8-mer E-score” value was -0.0347. For AAATTATA, the “PBM 8-mer E-score” value was 0.45. CATCTGGC was tested, and the “PBM 8-mer E-score” value was -0.194. In the case of CTGGAATC, the “PBM 8-mer E-score” value was -0.104. In the case of TCATTGAA, the “PBM 8-mer E-score” value was 0.0579. GAGCGGGA was tested, and the “PBM 8-mer E-score” value was -0.271. For CATTTCGA, the “PBM 8-mer E-score” value was 0.159. In the case of CACAGGCC, the “PBM 8-mer E-score” value was -0.19. With GGGCACAC the “PBM 8-mer E-score” value was -0.131. For AAATGCTG, the “PBM 8-mer E-score” value was 0.0079. AGCGATGG was tested, and the “PBM 8-mer E-score” value was -0.275. GAATAAGA was tested, and the “PBM 8-mer E-score” value was 0.201.
